# Results taken from PubChem BioAssay AID588795 (National Center for Advancing Translational Sciences (NCATS), 2011).
# Several values for one entry are separate records, joined by “and”; a condition that tells them apart may be missing. Equal values may be shown once. Screen size: about 390,000 compounds; about 1,400 (0.36%) were called active. Inconclusive results, whose numbers are uncertain, are shown with a selection of clear calls. The call rests on the fitted dose curve; in most records, active means well fitted inhibition curve with a large enough effect; inconclusive means small, poorly fitted or top-dose-only effect; inactive means no such curve, though single readings can be large or run the other way. Potencies beside an inconclusive call are fits to weak or partial responses and may not hold up.
# Molecular target: Flap endonuclease 1 (Homo sapiens) (UniProt P39748)
# Test: qHTS Assay for the Inhibitors of Human Flap endonuclease 1 (FEN1). Further: nearly all actives have a fitted effect of over 65% in size.
# Settings: Recombinant FEN1 flap cleavage, fluorescence, 15 min; series mostly up to 114 µM; activity change, negative = inhibition: at the top concentration
# Method in brief: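 FEN1 at 10 nM, compound pretreatment for 15 min (room temperature), 50 nM final substrate to initiate; endpoint reads at 0 and 15 min; DMSO-only plates used as vehicle background.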
# On the % scale 0 is the no-effect control and ±100 the full control effect; potency means the concentration at half of the fitted maximal effect; tags describe the fitted curve by direction and shape.
# Chain of UniProt P39748 (P39748 whole entry, looked up): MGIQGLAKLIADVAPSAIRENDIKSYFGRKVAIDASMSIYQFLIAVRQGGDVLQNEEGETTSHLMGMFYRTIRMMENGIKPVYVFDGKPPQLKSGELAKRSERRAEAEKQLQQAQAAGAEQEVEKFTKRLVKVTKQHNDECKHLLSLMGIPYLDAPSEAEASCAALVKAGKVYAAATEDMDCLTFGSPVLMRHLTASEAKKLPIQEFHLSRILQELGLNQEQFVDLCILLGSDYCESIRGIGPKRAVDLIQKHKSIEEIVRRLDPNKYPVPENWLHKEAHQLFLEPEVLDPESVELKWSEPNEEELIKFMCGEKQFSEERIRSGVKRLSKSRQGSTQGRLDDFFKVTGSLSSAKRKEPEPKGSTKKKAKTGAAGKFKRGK
Structure (SMILES),Potency,"activity change, negative = inhibition"
CCCCN(C)C(=O)CSc1nc2ccccc2nc1Cc1ccc(C)cc1,"inconclusive: 79.4 µM [inhibitor, partial curve, poor fit]",–
CCN(CC)c1ccc(/C=C/c2nccc3ccccc23)cc1,"inconclusive: 44.7 µM [inhibitor, partial curve, poor fit]",–
O=C(COc1ccc(Cl)cc1)NCCSCc1cccc(Cl)c1,"inconclusive: 79.4 µM [inhibitor, partial curve, poor fit]",–
CN(C)C(=S)N=c1ssc(=S)n1Cc1ccccc1,–,inactive: -16.5%
O=C(NC1CCCCC1)c1ccc2c(c1)N(Cc1ccccc1Cl)C(=O)c1ccccc1S2,–,inactive: 1.15%
COc1ccccc1CN1CCNC(=O)C1CC(=O)NCc1c(C)n[nH]c1C (configuration not stated),–,inactive: 3.02%
CCCC(=O)Nc1ccc(NC(=O)c2ccccc2OC)cn1,–,inactive: 0.888%
CCC(C)N1C(=O)/C(=C/c2c(NCCCOC(C)C)nc3c(C)cccn3c2=O)SC1=S (configuration not stated),"inconclusive: 20 µM [inhibitor, partial curve, poor fit]",–
CCN1CCC2(CC1)N=C(c1ccc(F)cc1)C(=S)N2C(=O)c1ccc(C(C)(C)C)cc1,–,inactive: -4.88%
CC(C)(C)NCC(O)CON=C1c2ccccc2-c2ccccc21 (configuration not stated),"inconclusive: 79.4 µM [inhibitor, partial curve]",–
CCCCn1c(N)c(N(CCC(C)C)C(=O)COC(=O)c2ccc([N+](=O)[O-])s2)c(=O)[nH]c1=O,–,inactive: -16.7%
CCOC(=O)/C(=C/C=C1\Sc2cc(C)c(C)cc2N1CC)C(C)=O,"inconclusive: 89.1 µM [inhibitor, partial curve, poor fit]",–
O=C(CSc1nc2c(c(=O)[nH]1)CN(Cc1ccc3c(c1)OCO3)CC2)Nc1ccccc1Cl,–,inactive: 1.32%
COc1cc(OC)c(/C=C/c2cc3c4ccccc4ccc3[n+](C)c2)c(OC)c1,"inconclusive: 39.8 µM [inhibitor, partial curve]",–
Cc1sc(NC(=O)CCl)c(C(=O)c2ccccc2)c1C,–,inactive: -10.7%
CCCOc1ccc(-c2cc(C(F)(F)F)c(C#N)c(SCCC(=O)O)n2)cc1,"inconclusive: 31.6 µM [inhibitor, full curve]",–
O=C(N/N=C/c1ccncc1)c1cccs1,–,inactive: -0.688%
O=C1C2C3C=CC(CC3)C2C(=O)N1/N=C/c1ccc(O)cc1 (configuration not stated),–,inactive: -2.64%
CCOC(=O)c1nn(-c2ccc(OCC)cc2)c(C)c1C(C)=O,–,inactive: 4.65%
CN1CCc2c(C#N)c(N3CCCCC3)nc(NCc3ccccc3)c2C1,"inconclusive: 89.1 µM [inhibitor, partial curve, poor fit]",–
COc1cccc(C(=O)CC(=O)C(=O)Nc2ccc([N+](=O)[O-])cc2C)c1,"inconclusive: 22.4 µM [inhibitor, full curve, poor fit]",–
COc1ccc(C(=O)Nc2cccc(/C=C(\CCC(=O)O)c3nc4ccccc4s3)c2)cc1,"inconclusive: 79.4 µM [inhibitor, partial curve, poor fit]",–
O=C(Nc1ccc(S(=O)(=O)O)cc1)c1ccc2c(c1)S(=O)(=O)c1ccccc1C2=O,active: 44.7 µM,–

Structure (SMILES),Potency,"activity change, negative = inhibition"
CC(C)Cn1c(N)c(C(=O)NCc2cccs2)c2nc3ccccc3nc21,"inconclusive: 35.5 µM [inhibitor, partial curve, poor fit]",–
COc1cc(C)c(/C=C/C(C)=C/C=C/C(C)=C/C(=O)O)c(C)c1C,"inconclusive: 89.1 µM [inhibitor, partial curve, poor fit]",–
CCC(Oc1ccc(F)cc1)C(=O)Nc1c(C(=O)c2ccc(C)cc2)oc2ccccc12 (configuration not stated),–,inactive: 4.31%
O=C(Nc1ccc(N2CCOCC2)cc1N1CCOCC1)c1ccco1,–,inactive: 8.21%
COc1ccc2c(c1)sc(N)[n+]2Cc1cc(C)cc2cccnc12,"inconclusive: 50.1 µM [inhibitor, partial curve, poor fit]",–
CN(C)c1ccc(/C=C/c2c(F)cnc3ccccc23)cc1,"inconclusive: 44.7 µM [inhibitor, partial curve, poor fit]",–
COc1ccc(Nc2cc(C(=O)NCCCN3CCN(c4ccccc4F)CC3)c3ccccc3n2)c(OC)c1,–,inactive: -22.7%
CN(C)C=Nc1c(Br)cc(Br)c2nonc12,"inconclusive: 56.2 µM [inhibitor, partial curve, poor fit]",–
O=C1NC(=Nc2ccccc2Cl)S/C1=C\c1cccc([N+](=O)[O-])c1O,"inconclusive: 70.8 µM [inhibitor, single point]",–
COc1cc2c3nnc(-c4ccc(F)cc4)c-3cn(Cc3ccc(F)cc3)c2cc1OC,"inconclusive: 50.1 µM [inhibitor, partial curve, poor fit]",–
O=C1C=C(c2c(O)ccc3ccccc23)c2ccccc2C1=O,"inconclusive: 79.4 µM [inhibitor, single point]",–
CC(=O)Nc1cccc(-c2csc(Nc3ccc(Cl)cn3)n2)c1,"inconclusive: 39.8 µM [inhibitor, single point]",–
Cc1ccc(C)c2nc3sc(C(=O)O)cc3cc12,"inconclusive: 79.4 µM [inhibitor, partial curve, poor fit]",–
CCc1ccccc1OCC(=O)Nc1nc(-c2cccnc2)cs1,–,inactive: -10.3%
O=C1C=C(Nc2cccc3cccnc23)c2ccccc2C1=O,active: 50.1 µM,–
COc1cccc(N2CCN(C(=O)C3CCN(S(=O)(=O)c4c(C)noc4/C=C/c4ccccc4F)CC3)CC2)c1,"inconclusive: 89.1 µM [inhibitor, partial curve, poor fit]",–
Cc1ccc(N2CCN(C(=O)Cn3ncc4c([nH]c5ccc(C)cc54)c3=O)CC2)c(C)c1,"inconclusive: 3.16 µM [inhibitor, partial curve, poor fit]",–
COC(=O)c1cc2c(-c3ccccc3)c(C)c3ccccn3c-2c1C(=O)OC,"inconclusive: 50.1 µM [inhibitor, partial curve]",–
CCOC(=O)c1ccc(NS(=O)(=O)c2cc3c(cc2C)NC(=O)CO3)cc1,–,inactive: 8%
COc1cc(/C=C/c2cc[n+](C)cc2)ccc1OCC(=O)Nc1ccc(Cl)c(Cl)c1,"inconclusive: 89.1 µM [inhibitor, single point]",–
CC1=[N+](C)c2ccc3ccccc3c2C1(C)C,"inconclusive: 44.7 µM [inhibitor, partial curve, poor fit]",–
O=C(O)Cn1ncc2c1-c1ccoc1CC2,"inconclusive: 25.1 µM [inhibitor, single point]",–
COC(=O)C1=CN(C(C)C)C=C(C(=O)OC)C1c1cc2c(cc1Br)OCO2,"inconclusive: 89.1 µM [inhibitor, partial curve, poor fit]",–

Structure (SMILES),Potency,"activity change, negative = inhibition"
O=C(O)CC(C(=O)O)N1C(=O)/C(=C/c2ccc(-c3nc4ccccc4s3)o2)SC1=S (configuration not stated),active: 35.5 µM,–
CCOC(=O)CC(=O)CSc1nc2ccc(C)cc2cc1C#N,"inconclusive: 25.1 µM [inhibitor, full curve]",–
CC(C)N1CCc2c(sc(NC(=O)c3ccc4ccccc4c3)c2C(N)=O)C1,"inconclusive: 89.1 µM [inhibitor, single point]",–
COCCn1cnnc1SCC(=O)Nc1sc2c(c1C#N)CCC2,–,inactive: 0.968%
O=C(O)CN1C(=O)CSC1=S,"inconclusive: 56.2 µM [inhibitor, partial curve, poor fit]",–
COc1cccc(Cn2c(=O)n(Cc3ccccc3)c(=O)c3c2c2cc(OC)ccc2n3C)c1,–,inactive: 1.55%
Cc1cccc2[nH]c3c(N4CC=C(c5ccc(F)cc5)CC4)ncnc3c12,"inconclusive: 31.6 µM [inhibitor, partial curve, poor fit]",–
CC1CCN(CCNC(=O)c2ccc3c(=O)n(Cc4ccc(Cl)cc4)c(=S)[nH]c3c2)CC1,"inconclusive: 39.8 µM [inhibitor, single point]",–
Clc1ccc(CSc2nncn3c2cc2occc23)cc1,"inconclusive: 17.8 µM [inhibitor, partial curve, poor fit]",–
CCS(=O)(=O)N1CCC(NC(=O)C(Cc2cc(OC)ccc2OC)NC(C)=O)CC1 (configuration not stated),–,inactive: -4.46%
CCN(CC)Cc1cc(O)c(CN(CC)CC)cc1O,"inconclusive: 15.8 µM [inhibitor, full curve, poor fit]",–
COc1cccc(OC)c1-c1cc(CCCc2cc(-c3c(OC)cccc3OC)nc3ccccc23)c2ccccc2n1,"inconclusive: 44.7 µM [inhibitor, partial curve, poor fit]",–
COc1ccc(NC(=O)/C=C/c2cc(Br)ccc2OC)cc1,–,inactive: -8.63%
O=[N+]([O-])c1cc(/C=N/Nc2nc3ccccc3[nH]2)c(O)cc1O,"inconclusive: 44.7 µM [inhibitor, partial curve]",–
CCOC(=O)N1CCN(C(=O)CSCc2nc(-c3ccccc3F)oc2C)CC1,–,inactive: -1.27%
COC(=O)c1c(NC(=O)c2ccc(C(C)(C)C)cc2)sc2c1CCC(C)C2 (configuration not stated),–,inactive: -0.662%
CCN(CC)CCNC(=O)c1ccc(NC(=O)c2cc(-c3ccco3)nc3ccccc23)cc1,"inconclusive: 89.1 µM [inhibitor, partial curve, poor fit]",–
CNCc1nc(-c2ccc[nH]2)c2cc(Cl)ccc2n1,"inconclusive: 79.4 µM [inhibitor, single point]",–
O=C(NCCn1cc(SCc2ccccc2)c2ccccc21)c1cccs1,active: 89.1 µM,–
O=C(Nc1ccc(Cl)cc1C(=O)O)c1ccc2c(c1)C(=O)N(Cc1ccco1)C2=O,"inconclusive: 56.2 µM [inhibitor, partial curve, poor fit]",–
CC1=C(/C=C/C(C)=C/C=C/C(C)=C/C(=O)Nc2ccc(O)cc2)C(C)(C)CCC1,"inconclusive: 15.8 µM [inhibitor, partial curve, poor fit] and inconclusive: 21.2 µM [inhibitor, single point]",–
